Measured values taken from the supplement of paper PMC3334620.
The full ranking holds about 33,000 sequences; the median of “E-score (-0.5 to 0.5)” is about -0.012, and the highest 2% start at about 0.27. Some of the results follow.

What follows are sequences tested against T1, Vhr1 (UniProt P40522) (assay: PBM E-score (8-mer binding enrichment) (E-score (-0.5 to 0.5)); higher = stronger / more preferred TF binding; most listed sequences are background and not binding sites). Details: protein concentration: 200 nM; construct: GST-full length.
T1 sequence: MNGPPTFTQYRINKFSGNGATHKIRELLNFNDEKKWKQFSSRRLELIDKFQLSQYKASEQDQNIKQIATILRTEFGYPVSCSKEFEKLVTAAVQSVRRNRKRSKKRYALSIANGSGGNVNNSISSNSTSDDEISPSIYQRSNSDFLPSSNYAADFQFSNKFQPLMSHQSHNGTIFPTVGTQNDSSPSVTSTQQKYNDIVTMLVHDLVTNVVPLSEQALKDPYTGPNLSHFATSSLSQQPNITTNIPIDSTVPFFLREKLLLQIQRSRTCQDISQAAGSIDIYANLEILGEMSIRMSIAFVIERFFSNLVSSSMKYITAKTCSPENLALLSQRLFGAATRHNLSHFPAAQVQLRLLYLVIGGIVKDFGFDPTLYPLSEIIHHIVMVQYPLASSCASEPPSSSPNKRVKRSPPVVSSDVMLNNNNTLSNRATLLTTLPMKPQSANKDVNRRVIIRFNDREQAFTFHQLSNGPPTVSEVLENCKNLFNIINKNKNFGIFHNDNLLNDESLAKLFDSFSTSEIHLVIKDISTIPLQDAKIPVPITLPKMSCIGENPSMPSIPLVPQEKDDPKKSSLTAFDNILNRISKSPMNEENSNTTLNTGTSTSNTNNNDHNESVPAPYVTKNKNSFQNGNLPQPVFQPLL
Summary of the method: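 Universal all-10-mer Agilent arrays, fresh or stripped once, were converted to double-stranded form by primer extension. GST-tagged yeast transcription factors from PURExpress in vitro transcription/translation, full-length or DNA-binding domain only, were applied at about 100-200 nM and detected with fluorescent anti-GST. After masliner normalisation, the Universal PBM Analysis Suite scored each ungapped eight-base word together with its reverse complement by E-score.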

Sequence	PBM E-score
CAGGGGCA	-0.0453
CTCCTTCA	-0.212
AGGGATAT	-0.0794
CACACTAC	0.078
AATTTAAC	0.2
CCGTATCC	0.13
CATGTGCC	0.0182
GTCCCGTA	-0.165
ATCCACGG	0.0499
CTCCGTGA	0.0921
ACCTACAG	0.0973
GAGACTAC	0.135
CCGAAAAC	-0.125
AAGACTGA	-0.0881
CCAATTAC	0.0306
AATGGTAG	0.191
GTCGCTGA	0.138
GACCACAA	0.041
CATCAAGG	-0.181
GTACTAAC	0.102
ACATACAG	0.0715
ATTATAAG	-0.109
GCTTAGGA	-0.0935
CCATTACA	0.236
CGGAGCCA	0.196

Sequence	PBM E-score
GAGGGCAC	-0.205
ACCCTTTA	-0.0907
ACGGCAAA	-0.0731
AGCCCCCC	-0.247
CAATATCG	0.0708
CGCAGAGC	-0.018
CTAACTGC	-0.178
AACCCCCC	-0.207
ATGCCCCC	-0.16
GCATCTTA	-0.0496
CCTATGCG	-0.0552
AACCGTCG	-0.0215
ATCCCGCA	-0.0136
CATCGTGC	-0.0818
AAAAGCGA	0.0171
GTCCTTGA	-0.135
AAATTATA	0.13
CATCTGGC	0.225
CCGGAAGG	-0.0756
AACTATGC	0.0408
CTTTAACC	-0.127
ACGTTGAG	-0.233
AAGCCAAA	-0.181
CATAGCCC	-0.143
ATAAACTG	0.125

Sequence	PBM E-score
TAGAATAA	-0.036
CACAGGCC	0.0336
GGGCACAC	-0.0311
CATTTCGA	-0.0564
CTGGAATC	0.104
TCATTGAA	-0.00861
GAGCGGGA	0.0183
AGCGATGG	0.123
AAATGCTG	-0.0217
CTTGGTGA	0.156
AATTAAGC	-0.148
CCTGAGTA	0.205
CTGGCCGC	-0.072
CTCAGTAA	-0.142
GAATAAGA	-0.0834
CTCTAACA	-0.098
AAGTGGCG	0.06
CATTCTGG	-0.0474
CTGAAGGA	-0.295
AGTAGTCC	0.0701
CTCTAGTA	0.00828
AATTCTTC	-0.211
ACCACGAT	0.226
GCTCGTGA	0.0309
CCTCTTTC	-0.259

Sequence	PBM E-score
GTCCACCA	-0.0881
CAGTTTGG	-0.00782
GCGTGAGC	0.205
CATTACAC	0.253
GGTTCTAA	-0.0638
CGATATGC	0.107
TGTTTTAA	-0.149
CGAATGGA	0.0534
CATACACA	0.113
AATTAAAA	-0.187
ATTCCCGA	-0.0416
ACGTTTAC	-0.223
CATCCGGA	-0.0233
ACCCACCA	0.296
ATGTCGAA	0.0643
GGGGCGGA	0.246
TACACTCA	0.143
AATGAATG	0.0955
AGACTCAA	0.214
CTAAAACA	-0.0504
CCTCGGTC	-0.116
CATTAGAG	-0.0175
CTTAGAAC	-0.196
ACTGGTTG	0.128
AGTCAGAC	0.248

Sequence	PBM E-score
GAAAATGC	-0.269
CCTATCAG	-0.0514
AGCCGATC	0.0868
CAGATACC	-0.0896
ATCAACGG	0.146
GCAATGCA	-0.106
AGAGCCTG	-0.231
ACTTTGGG	0.00749
AAGGTACG	-0.16
CAGACTGC	0.00779
GTGAATGA	0.0662
TCTAAGAA	-0.16
ACAATTAC	0.0273
AGACCGCG	0.0233
ACTCGTAG	0.16
GCCAGCGC	-0.106
AACCCCTA	-0.0392
AGAGATAG	-0.194
GCCGGGCA	-0.031
ATACTTGA	-0.141
ACCGCTAT	-0.00267
TAAGGAGA	-0.154
ATCCACCG	0.114
CCCTTGAA	-0.12
ATTTGTGC	-0.0333

Sequence	PBM E-score
CCACCTGG	-0.0837
ATGTTTCG	0.167
CGTGGTAA	-0.0457
TGGGGACA	-0.118
GAGTCTCA	0.256
AGACATTA	0.038
CAAAGGCG	-0.0789
ATTGTGAA	-0.0037
GCAAGGTA	-0.23
CAGCCCCA	0.0608
CCTATGAA	-0.117
GGATACAA	0.106
CACCGCGG	0.2
ACCTCACA	0.0753
ACCTCGAG	0.0042
CATTATTA	0.111
CCTTAAAC	-0.156
CGGACCGA	0.0284
AGCGGCTC	-0.0971
AATCTGGA	-0.0288
GGCCATAA	-0.0526
CCGGATAC	0.125
AATACATC	0.159
CGAGAGAG	-0.191
GGCGGCCC	-0.00853

Sequence	PBM E-score
AACATTCA	-0.0618
GTCGTTGA	0.0411
CCATTAGG	-0.249
CGAACGAG	-0.0695
AATACGAC	0.171
AGGATCAA	0.0354
ATAATCTG	0.0126
AAATCCCT	-0.259
ACCCCACC	0.385
CAAGATCA	0.143
CGACTCAG	0.428
ACTTACTA	-0.0804
CTTTCTAA	-0.151
ATACCCCA	0.0606
ACAAATGG	0.185
CTGTACTA	0.0704
CTACACGC	0.00513
AAGTTACA	0.0308
TAGTGTGA	0.088
AGTCGCGA	0.305
AGCTATCC	-0.309
AGGTTCAT	0.0353
